The list shows a part of the results.
Experiments:
HSkMC = human skeletal muscle cells; experiment: cytotoxicity call (relative viability < 0.9); conditions: 10 µM
HepG2 = experiment: cytotoxicity call (relative viability < 0.9); conditions: 10 µM
S. aureus RN4220 = experiment: growth inhibition call (relative growth <= 0.2); conditions: 50 µM

SMILES	cytotoxicity call (HSkMC)	cytotoxicity call (HepG2)	growth inhibition call (S. aureus RN4220)
C[C@@H]1CCCCO[C@H](CN(C)S(=O)(=O)c2ccc(F)cc2)[C@H](C)CN([C@@H](C)CO)C(=O)c2cc(NC(=O)Nc3ccc4c(c3)OCO4)ccc2O1	inactive	inactive	inactive
C[C@@H]1CN([C@@H](C)CO)C(=O)Cc2cc(NC(=O)CCCCCC(=O)Nc3ccccc3N)ccc2O[C@H]1CN(C)C(=O)Nc1ccccc1	inactive	inactive	inactive
CC(=O)NCC(=O)O.CC(=O)NCC(=O)O.N=C(N)c1ccc(N=NNc2ccc(C(=N)N)cc2)cc1	inactive	inactive	inactive
C[C@@H]1CCCCO[C@@H](CN(C)Cc2ccc(C(=O)Nc3ccccc3N)cc2)[C@@H](C)CN([C@H](C)CO)C(=O)c2cc(NC(=O)Nc3ccccc3)ccc2O1	inactive	inactive	inactive
C=CCSC1=N[C@@]2(COCc3ccc(OC)cc3)Oc3ccccc3[C@H]([C@H]2CO[Si](C)(C)C(C)(C)C)N1C(=O)c1ccccc1	inactive	inactive	inactive
O=C(CCCCCCC(=O)Nc1cccc(C(=O)NCCOCCOCCNC(=O)c2cccc(NC(=O)CCCCCCC(=O)NO)c2)c1)NO	inactive	inactive	inactive
COc1ccc(S(=O)(=O)N(C)C[C@H]2Oc3ncc(C#CC4(O)CCCC4)cc3C(=O)N([C@H](C)CO)C[C@H]2C)cc1	inactive	inactive	inactive
C[C@H](CO)N1C[C@H](C)[C@H](CN(C)S(=O)(=O)c2cn(C)cn2)Oc2ccc(NC(=O)CCCCCC(=O)Nc3ccccc3N)cc2CC1=O	inactive	inactive	inactive
CC(C)NC(=O)N(C)C[C@H]1Oc2c(NS(=O)(=O)c3cn(C)cn3)cccc2C(=O)N([C@H](C)CO)C[C@@H]1C	inactive	inactive	inactive
Cc1noc(C)c1NC(=O)Nc1cccc2c1O[C@H](CN(C)C(=O)Nc1cccc3ccccc13)[C@H](C)CN([C@@H](C)CO)C2=O	inactive	inactive	inactive
O=C(C[C@H]1C=C[C@@H](NC(=O)CN2CCOCC2)[C@@H](CO)O1)NC1CCC1	inactive	inactive	inactive
C[C@H](O)[C@H](O)[C@@H](O)[C@@H](O)/C=N/NC(=O)c1ccc(C(=O)NO)cc1	inactive	inactive	inactive
CC(C)NC(=O)Nc1ccc2c(c1)C(=O)N([C@H](C)CO)C[C@@H](C)[C@H](CN(C)S(=O)(=O)c1cn(C)cn1)OCCCC[C@H](C)O2	inactive	inactive	inactive
CCNC(=O)c1sc(C)nc1N	inactive	active	inactive
CC(C)NC(=O)Nc1ccc2c(c1)CC(=O)N([C@H](C)CO)C[C@H](C)[C@@H](CN(C)S(=O)(=O)c1ccc(F)cc1)O2	inactive	inactive	inactive
O=C(O)CCC(=O)O	inactive	inactive	inactive
COCC#Cc1ccc2c(c1)O[C@@H](CN(C)C(=O)Nc1ccc(OC)cc1)[C@@H](C)CN([C@@H](C)CO)S2(=O)=O	inactive	inactive	inactive
C[C@@H]1CN([C@H](C)CO)C(=O)c2cccc(NS(=O)(=O)c3ccccc3)c2O[C@H]1CN(C)S(=O)(=O)c1ccccc1	inactive	inactive	inactive
Cc1cc(C(=O)Nc2cccc3c2O[C@H](CN(C)Cc2ccc(C(=O)O)cc2)[C@@H](C)CN([C@H](C)CO)C3=O)n(C)n1	inactive	inactive	inactive
C[C@@H]1CCCCO[C@H](CN(C)C(=O)Nc2ccc(F)cc2)[C@H](C)CN([C@@H](C)CO)C(=O)c2cc(NC(=O)Nc3cccc4ccccc34)ccc2O1	inactive	inactive	inactive
C[C@@H]1CCCCO[C@H](CN(C)S(C)(=O)=O)[C@@H](C)CN([C@H](C)CO)C(=O)c2cc(NC(=O)CCCN(C)C)ccc2O1	inactive	inactive	inactive
COc1cccc(S(=O)(=O)N2C[C@@H](O)COC[C@@H]3O[C@H](CC(=O)N4CCN(C)CC4)CC[C@H]32)c1	inactive	inactive	inactive
Cc1cccc(NC(=O)Nc2ccc3c(c2)C(=O)N(C)[C@@H]2CC[C@H](CC(=O)NCc4ccccc4Cl)O[C@H]2CO3)c1	inactive	inactive	inactive
Cc1ccc(S(=O)(=O)N(C)C[C@H]2OCCCC[C@@H](C)Oc3ccc(NC(=O)Nc4ccc5c(c4)OCO5)cc3C(=O)N([C@H](C)CO)C[C@@H]2C)cc1	inactive	inactive	inactive
COc1ccc(S(=O)(=O)N(C)C[C@H]2Oc3c(NC(=O)c4ccncc4)cccc3C(=O)N([C@H](C)CO)C[C@@H]2C)cc1	inactive	inactive	inactive
Cc1noc(C)c1NC(=O)N(C)C[C@@H]1Oc2ccc(NS(=O)(=O)c3cn(C)cn3)cc2C(=O)N([C@H](C)CO)C[C@H]1C	inactive	inactive	inactive
CC(=O)OC[C@]12[C@H](OC(=O)c3ccccc3)C[C@@H]3[C@@H](OC(C)=O)[C@]1(OC3(C)C)[C@H](C)C[C@H](OC(C)=O)[C@@H]2OC(C)=O	inactive	inactive	inactive
